Measured values: article PMC4336329 (PLoS ONE, 2015)
The campaign covered roughly 310,000 compounds. About 14,000 (4.5%) showed an effect of 50% or more. The effect is printed as a negative number. Some of the results follow.

Biological target: human ether-à-go-go-related gene (hERG) potassium channel (human, UniProt Q12809)
Assay: primary screen, population patch clamp on CHO cells stably expressing hERG
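Also: peak tail current of the secondary pulse compared with the same well before compound.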

Chain of human ether-à-go-go-related gene (hERG) potassium channel (Q12809 whole entry, looked up): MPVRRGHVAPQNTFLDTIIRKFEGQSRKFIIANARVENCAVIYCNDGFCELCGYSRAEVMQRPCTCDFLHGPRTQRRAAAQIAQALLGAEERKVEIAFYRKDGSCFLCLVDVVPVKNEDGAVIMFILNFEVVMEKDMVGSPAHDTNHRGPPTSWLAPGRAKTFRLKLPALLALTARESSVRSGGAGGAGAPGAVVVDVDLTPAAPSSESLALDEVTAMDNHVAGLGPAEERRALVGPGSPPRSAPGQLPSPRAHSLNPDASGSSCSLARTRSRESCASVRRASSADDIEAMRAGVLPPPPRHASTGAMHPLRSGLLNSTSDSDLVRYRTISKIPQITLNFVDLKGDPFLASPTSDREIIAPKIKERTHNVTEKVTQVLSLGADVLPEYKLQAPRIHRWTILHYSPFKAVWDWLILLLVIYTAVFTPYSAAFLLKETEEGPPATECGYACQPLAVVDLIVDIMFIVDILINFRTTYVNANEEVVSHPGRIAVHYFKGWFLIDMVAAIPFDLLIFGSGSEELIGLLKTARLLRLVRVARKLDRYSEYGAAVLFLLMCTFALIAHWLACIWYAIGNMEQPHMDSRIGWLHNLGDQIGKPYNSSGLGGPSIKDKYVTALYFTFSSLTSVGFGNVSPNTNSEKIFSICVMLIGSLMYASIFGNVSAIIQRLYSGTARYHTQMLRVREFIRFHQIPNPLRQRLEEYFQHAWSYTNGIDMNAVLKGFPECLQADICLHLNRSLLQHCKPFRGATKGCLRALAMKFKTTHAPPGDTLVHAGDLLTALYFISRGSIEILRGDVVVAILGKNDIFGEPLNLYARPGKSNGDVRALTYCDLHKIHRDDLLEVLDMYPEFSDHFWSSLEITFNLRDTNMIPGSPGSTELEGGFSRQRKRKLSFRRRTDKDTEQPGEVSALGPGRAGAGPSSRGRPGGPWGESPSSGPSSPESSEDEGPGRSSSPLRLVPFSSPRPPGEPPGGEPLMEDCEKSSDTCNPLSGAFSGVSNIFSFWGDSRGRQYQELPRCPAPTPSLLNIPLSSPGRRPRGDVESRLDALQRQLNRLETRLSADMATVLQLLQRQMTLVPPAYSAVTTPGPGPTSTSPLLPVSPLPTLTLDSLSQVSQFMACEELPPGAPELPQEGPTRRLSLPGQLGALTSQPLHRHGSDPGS

Structure (SMILES)	hERG current change (%, negative = inhibition) at 10uM [%]
CCn1c(=O)cc(SCC(=O)NCCCN2CCN(c3ccccc3F)CC2)c2ccccc21	-62.2
COc1cc([N+](=O)[O-])cc(/C=N/NC(=O)c2cc(C)nc3ccccc23)c1O	10.1
Cc1ccccc1-c1nc(CN2CCC(C(=O)N3CCC(C(N)=O)CC3)CC2)c(C)o1	2.7
COc1ccc(OCC(=O)NC(=S)Nc2ccc3c4c(cccc24)CC3)cc1	16.6
Cc1[nH]c(=S)[nH]c(=O)c1Cc1ccccc1	12.7
Cn1c(N)c(C(=O)COC(=O)c2cccnc2Cl)c(=O)n(C)c1=O	-8.28
CCOc1ccc2c(=O)c(Oc3ccccc3)c(C)oc2c1	-6.41
CN(Cc1ccon1)C(=O)C1CCN(C2CCN(CCCc3ccccc3)CC2)CC1	-34.1
COc1ccc(C(=O)O)nc1C	5.78
Cc1ccc(NC(=O)NCc2ccccn2)c(C)c1	13.4
Cc1noc(C)c1S(=O)(=O)Nc1ccc(C(=O)N2CCN(c3cccc(Cl)c3)CC2)cc1	-4.16
C#CCOCCOCCOCCNc1nc(N2CCN(C(=O)[C@H](Cc3cc4ccccc4[nH]3)n3cc([C@@H](N)C(C)CC)nn3)CC2)nc(N2CCN(C(=O)[C@H](Cc3cc4ccccc4[nH]3)n3cc([C@@H](N)CC(C)C)nn3)CC2)n1.Cl (some centres unmarked)	-1.93
Cn1nc([N+](=O)[O-])nc1Sc1cccc2cccnc12	13.9
C/C(=N\NC(=O)C1CC1)c1ccc2c(c1)OCCO2	3.37
CCOc1ccc(S(=O)(=O)N2CCN(C(=O)CN3C(=O)NC(C)(C)C3=O)CC2)cc1	-12.4
CC(C)c1ccc(-c2nc(N3CCCCCC3)nc3n[nH]c(N)c23)cc1	11.4
CCCCNCCCOc1cc(Cl)ccc1Cl.O=C(O)C(=O)O	-54.3
S=C(NCCc1ccccc1)Nc1ccc(N2CCCCC2)cc1	14.2
Oc1ccc(N=Cc2ccc(O)c(O)c2)cc1	-3.33
CS(=O)(=O)N1CCN(c2ccc(NC(=O)COc3ccccc3[N+](=O)[O-])cc2)CC1	1.93
FC(F)(F)c1nc(-c2cccs2)ncc1-c1nnnn1-c1ccc(Cl)cc1	-8.44
CCN(CC)c1c2c(c(C#N)c3nc4ccccc4n13)CCC2	-7.44

Structure (SMILES)	hERG current change (%, negative = inhibition) at 10uM [%]
Cn1c(=O)c(-c2cccc(Cl)c2)c(O)c2ccccc21	14
CCOc1cc(/C=N\NC(=O)Cc2ccccc2)ccc1OCC(=O)Nc1ccc(C)c(C)c1	16.7
O=C(CSC1=NS(=O)(=O)c2ccccc2N1)NCCc1ccccc1	-2.47
COc1ccc(OC)c(-c2csc(NC(=O)CSc3ccc(Br)cc3)n2)c1	19
COc1ccc(/C(O)=C2/C(=O)C(=O)N(c3ncccn3)C2c2ccc(F)cc2)cc1 (centres unmarked)	14
CC(C)(C)C1(O)CC(C(F)(F)F)=NN1C(=O)CCCc1ccccc1 (centres unmarked)	0.439
COC(=O)CSC1=C(C#N)C(=O)NC(c2ccccc2)S1 (centres unmarked)	14.2
COc1ccc(NS(=O)(=O)c2ccc3oc(=S)[nH]c3c2)cc1	20.2
CCCCOC(=O)CSc1nc(N)c(C#N)c(-c2ccc(OC)cc2)c1C#N	9.13
O=C(c1ccc(-n2cccc2)cc1)N1CCN(Cc2ccccc2)CC1	-81.1
Cc1ccc(SCC(=O)OCC(=O)NCC2CCCCC2)cc1C	7.75
COc1cc(NC(=O)c2ccccc2)c(OC)cc1NC(=O)CSc1[nH]c(=O)cc(C)c1C#N	15.7
CNc1ccc(Br)cc(C(=O)/C=C/c2cccc(OC)c2)c1=O	-1.19
COc1ccccc1NC(=O)CCN1C(=O)c2ccccc2C1=O	4.09
CCOC(=O)/C=C1\SCC(=O)N1CCOc1cccc(Br)c1	-5.78
O=C(NC(NC(=S)Nc1ccccc1)C(Cl)(Cl)Cl)c1cccc(Cl)c1 (centres unmarked)	7.91
O=C(O)c1cc(-c2cccs2)nn1-c1ccc(F)cc1	20.8
Cc1ccc(Cn2nc(C)c(C(=O)N3CCN(S(=O)(=O)/C=C/c4ccccc4)CC3)c2C)cc1	-35.1
O=C1CCC(=O)N1CCc1c[nH]c2ccccc12	11.1
Cc1ccc(N=C2NC(=O)/C(=C\c3ccsc3)S2)c(C)c1	11.3
CCOC(=O)c1c(NC(=O)COC(=O)c2nc(Cl)ccc2Cl)sc(C(=O)NC)c1C	-1.21
Cc1ccc2cccc(OCC(=O)Nc3ccc(N4CCOCC4)cc3)c2n1	-4.52
